Experimental data from PubChem BioAssay (Tox21).
Activity calls are given as the source filed them. Unless noted, calls come from the whole dose curve; as a rule, active = well fitted curve in the direction sought with a large enough effect in the repeat runs; inconclusive = weak or mixed curves; inactive = no such curve, though single readings can be large; an effect the other way counts as inactive or inconclusive.

What was measured:
[1] = qHTS assay for small molecule agonists of the p53 signaling pathway (AID 651631; calls by dose curve; note: nearly all actives have a fitted effect of over 15% in size; note: potency is the fitted concentration of half-maximal effect); conditions: HCT-116 p53RE-bla reporter, beta-lactamase FRET ratio, 16 h; activation: at 73.3 µM (top of the series) unless noted
In short: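 Beta-lactamase reporter activity under p53 response elements was quantified in HCT-116 cells by FRET fluorescence, following 16 h incubation with test compounds at 37 °C and 2 h substrate development at room temperature.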

[2] = qHTS assay for small molecule disruptors of the mitochondrial membrane potential (AID 720635); conditions: HepG2 mitochondrial membrane potential, Mito-MPS dye ratio; ratio activity, negative = MMP loss: at 83.2 µM (top of the series) unless noted; note: potency is the fitted concentration of half-maximal effect; for ratio activity, negative = MMP loss: % is set by controls: 0 for no effect and ±100 for the full control effect
In short: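 HepG2 cells exposed to compound 1 hr at 37C, then Mito-MPS dye 30 min. Ratio read of aggregate (540/590 nm) versus monomer (490/535 nm) fluorescence.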

[3] = biological target: Glucocorticoid receptor (Homo sapiens) (UniProt P04150); test: qHTS assay to identify small molecule agonists of the glucocorticoid receptor (GR) signaling pathway (AID 720691; active = well fitted activation curve with a large enough effect in the signal ratio in the repeat runs, not every such curve was filed as active; inconclusive = weak or mixed curves, or effect the other way; inactive = no such curve, though single readings can be large or run the other way; the % refers to the signal ratio; note: potency is the fitted concentration of half-maximal effect); conditions: GR-bla HeLa, beta-lactamase reporter ratio, 18 h; activation: at 62.4 µM (top of the series) unless noted
Sequence of UniProt P04150 (P04150 whole entry, looked up): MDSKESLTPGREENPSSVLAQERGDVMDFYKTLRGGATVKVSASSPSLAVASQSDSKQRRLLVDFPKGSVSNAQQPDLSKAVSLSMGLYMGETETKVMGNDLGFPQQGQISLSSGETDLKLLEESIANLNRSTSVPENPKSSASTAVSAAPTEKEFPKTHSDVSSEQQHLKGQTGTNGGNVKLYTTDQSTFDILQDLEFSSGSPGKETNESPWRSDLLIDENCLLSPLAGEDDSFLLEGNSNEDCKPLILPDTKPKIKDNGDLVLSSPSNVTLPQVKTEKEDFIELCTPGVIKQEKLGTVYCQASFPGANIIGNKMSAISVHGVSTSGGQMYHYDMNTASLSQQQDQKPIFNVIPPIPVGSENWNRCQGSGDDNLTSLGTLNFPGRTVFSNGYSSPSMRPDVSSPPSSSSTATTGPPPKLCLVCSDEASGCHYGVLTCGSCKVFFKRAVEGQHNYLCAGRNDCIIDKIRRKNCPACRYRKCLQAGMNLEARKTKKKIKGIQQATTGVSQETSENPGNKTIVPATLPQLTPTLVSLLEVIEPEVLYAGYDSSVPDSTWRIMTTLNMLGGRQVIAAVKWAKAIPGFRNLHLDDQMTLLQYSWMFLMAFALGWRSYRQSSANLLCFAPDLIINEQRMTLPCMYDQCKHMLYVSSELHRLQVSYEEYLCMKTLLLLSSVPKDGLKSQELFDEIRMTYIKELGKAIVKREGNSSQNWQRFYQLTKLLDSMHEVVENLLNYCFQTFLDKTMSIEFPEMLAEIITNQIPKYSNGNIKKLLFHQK
In short: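 GR-bla HeLa cells (beta-lactamase reporter under glucocorticoid response element) were plated 4 h at 37 C/5% CO2, given compounds in DMSO, and incubated 18 h at 37 C. LiveBLAzer B/G FRET substrate was added for 2 h at room temperature, then fluorescence intensity read.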

[4] = biological target: Glucocorticoid receptor (Homo sapiens) (UniProt P04150); test: qHTS assay to identify small molecule antagonists of the glucocorticoid receptor (GR) signaling pathway (AID 720692; active = well fitted inhibition curve with a large enough effect in the signal ratio in the repeat runs, not every such curve was filed as active; inconclusive = weak or mixed curves, or effect the other way; inactive = no such curve, though single readings can be large or run the other way; the % refers to the signal ratio; note: potency is the fitted concentration of half-maximal effect); conditions: GR-bla HeLa, beta-lactamase FRET ratio, dexamethasone-stimulated, 18 h; activity change, negative = inhibition: at 58.5 µM (top of the series) unless noted
In short: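 GR-bla HeLa cells (beta-lactamase reporter under glucocorticoid response element) were pre-plated 4 h at 37 C, treated with compounds plus 5 nM dexamethasone (final) for 18 h, then read by LiveBLAzer B/G FRET fluorescence after 2 h.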

[5] = qHTS assay to identify small molecule antagonists of the glucocorticoid receptor (GR) signaling pathway - cell viability counter screen (AID 720693); conditions: GR-bla HeLa viability, CellTiter-Glo luminescence, 18 h, with 5 nM dexamethasone present; viability change, negative = cytotoxic: at 58.5 µM (top of the series); note: nearly all actives have a fitted effect of over 55% in size; note: potency is the fitted concentration of half-maximal effect; for viability change, negative = cytotoxic: % is set by controls: 0 for no effect and ±100 for the full control effect
[6] = qHTS assay to identify small molecule antagonists of the androgen receptor (AR) signaling pathway using the MDA cell line - cell viability counter screen (AID 743041; note: nearly all actives have a fitted effect of over 45% in size; note: potency is the fitted concentration of half-maximal effect); conditions: MDA-kb2 viability, CellTiter-Fluor, 16 h, cells co-treated with R1881 androgen agonist; viability change, negative = cytotoxic: at 70.3 µM (top of the series)
In short: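 Same-well cytotoxicity was assessed by CellTiter-Fluor in MDA-kb2 AR-luc cells after 16 h of compound treatment under R1881 agonism.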

[7] = tested on: thyroid hormone receptor (rat, GH3 cells); test: qHTS assay to identify small molecule agonists of the thyroid receptor (TR) signaling pathway (AID 743066; calls by dose curve; note: % is set by controls: 0 for no effect and ±100 for the full control effect); conditions: GH3.TRE-Luc cells, TR agonist luciferase, 24 h; activation: at 83.9 µM (top of the series) unless noted
[8] = qHTS assay to identify small molecule antagonists of the estrogen receptor alpha (ER-alpha) signaling pathway - cell viability counter screen (AID 743074; calls by dose curve;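 note: HEK293 cells carrying ER-alpha-UAS-bla reporter stimulated with 17beta-estradiol; nearly all actives have a fitted effect of over 45% in size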; note: potency is the fitted concentration of half-maximal effect)
[9] = qHTS assay to identify aromatase inhibitors - cell viability counter screen (AID 743084); conditions: MCF-7 aro ERE viability, CellTiter-Fluor, 24 h; activity change, negative = cytotoxicity: at 70.3 µM (top of the series) unless noted;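 note: cells stimulated with testosterone during compound exposure; nearly all actives have a fitted effect of over 55% in size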; note: potency is the fitted concentration of half-maximal effect
[10] = biological target: Nuclear receptor subfamily 1 group I member 2 (Homo sapiens) (UniProt O75469); test: Human pregnane X receptor (PXR) activation by small molecules, qHTS assay (AID 1346985); note: potency is the fitted concentration of half-maximal effect; nearly all actives have a fitted effect of over 40% in size
In short: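 DPX-2 cells (HepG2 co-transfected with a PXR response element and a CYP3A4-promoter luciferase construct) were seeded at 2,000 per well, rested 5 hr at 37C, then exposed to DMSO-dissolved compounds for 24 hr. Activation was read as luciferase luminescence.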

[11] = qHTS assay for identifying genotoxic compounds that show differential cytotoxicity against isogenic chicken DT40 cell lines with known DNA damage response pathways - wild type cell line (AID 743012); conditions: DT40 wild type chicken cells viability, CellTiter-Glo, 40 h; activity change, negative = cytotoxicity: at 68.4 µM (top of the series) unless noted; note: potency is the fitted concentration of half-maximal effect; nearly all actives have a fitted effect of over 60% in size
In short: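 Parental DNA repair-proficient DT40 cells, 300 per well, were pre-incubated ~0.5 h at 37 C/5% CO2, pin-dosed with compounds in DMSO, then incubated 40 h. Viability was read as CellTiter-Glo luminescence after 30 min at room temperature.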

[12] = qHTS assay for identifying genotoxic compounds that show differential cytotoxicity against isogenic chicken DT40 cell lines with known DNA damage response pathways - Rev3 mutant cell line (AID 743014); conditions: chicken DT40 Rev3-/- viability, CellTiter-Glo, 40 h; activity, negative = cytotoxicity: at 68.4 µM (top of the series) unless noted; note: nearly all actives have a fitted effect of over 55% in size; note: potency is the fitted concentration of half-maximal effect; for activity, negative = cytotoxicity: % is set by controls: 0 for no effect and ±100 for the full control effect
[13] = biological target: Peroxisome proliferator-activated receptor gamma (Homo sapiens) (UniProt P37231); test: qHTS assay to identify small molecule agonists of the peroxisome proliferator-activated receptor gamma (PPARg) signaling pathway (AID 743094; active = well fitted activation curve with a large enough effect in the signal ratio in the repeat runs, not every such curve was filed as active; inconclusive = weak or mixed curves, or effect the other way; inactive = no such curve, though single readings can be large or run the other way; the % refers to the signal ratio; note: potency is the fitted concentration of half-maximal effect); conditions: HEK293H PPARg-UAS-bla, beta-lactamase FRET ratio, 17 h; activation: at 57 µM (top of the series) unless noted
Sequence of UniProt P37231 (P37231 whole entry, looked up): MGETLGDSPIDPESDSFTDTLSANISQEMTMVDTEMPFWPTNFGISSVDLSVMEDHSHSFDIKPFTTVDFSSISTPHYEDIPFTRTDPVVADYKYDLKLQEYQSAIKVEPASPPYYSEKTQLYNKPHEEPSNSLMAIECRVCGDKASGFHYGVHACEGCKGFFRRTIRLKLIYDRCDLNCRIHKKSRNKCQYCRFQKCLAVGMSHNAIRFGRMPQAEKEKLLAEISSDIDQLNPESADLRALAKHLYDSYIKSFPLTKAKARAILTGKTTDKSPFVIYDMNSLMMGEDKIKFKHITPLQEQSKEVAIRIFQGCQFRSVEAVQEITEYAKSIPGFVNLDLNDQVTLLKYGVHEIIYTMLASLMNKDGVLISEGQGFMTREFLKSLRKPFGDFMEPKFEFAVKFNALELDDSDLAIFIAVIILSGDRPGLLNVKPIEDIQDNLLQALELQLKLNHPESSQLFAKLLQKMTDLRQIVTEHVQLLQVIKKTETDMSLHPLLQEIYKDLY
In short: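 GeneBLAzer PPARg UAS-bla HEK293H cells carrying a stably integrated beta-lactamase reporter were pre-incubated 5 h at 37C, then exposed to compounds in DMSO for 17 h at 37C; LiveBLAzer B/G FRET substrate was added for 1 h at room temperature and fluorescence read.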

[14] = qHTS assay for identifying genotoxic compounds that show differential cytotoxicity against isogenic chicken DT40 cell lines with known DNA damage response pathways - Rad54/Ku70 mutant cell line (AID 743015); conditions: DT40 Rad54/Ku70 mutant viability, CellTiter-Glo, 40 h; activity change, negative = cytotoxicity: at 66.8 µM (top of the series) unless noted; note: potency is the fitted concentration of half-maximal effect; nearly all actives have a fitted effect of over 60% in size
[15] = qHTS assay to identify small molecule antagonists of the thyroid receptor (TR) signaling pathway - cell viability counter screen (AID 743064); conditions: GH3.TRE-Luc viability, CellTiter-Fluor, 24 h; activity change, negative = cytotoxic: at 70.3 µM (top of the series) unless noted; note: nearly all actives have a fitted effect of over 50% in size; note: potency is the fitted concentration of half-maximal effect
In short: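 CellTiter-Fluor readout, 30 min at 37 °C/5% CO2, following 23.5 h incubation of GH3.TRE-Luc cells with test compound and 1 nM T3 (final).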

[16] = biological target: Estrogen receptor (Homo sapiens) (UniProt P03372); test: qHTS assay to identify small molecule agonists of the estrogen receptor alpha (ER-alpha) signaling pathway using the BG1 cell line (AID 743079); conditions: BG1Luc4E2 cells, ERE-luciferase agonist, 22 h; activation: at 70.3 µM (top of the series) unless noted; note: nearly all actives have a fitted effect of over 20% in size; note: potency is the fitted concentration of half-maximal effect
Sequence of UniProt P03372 (P03372 whole entry, looked up): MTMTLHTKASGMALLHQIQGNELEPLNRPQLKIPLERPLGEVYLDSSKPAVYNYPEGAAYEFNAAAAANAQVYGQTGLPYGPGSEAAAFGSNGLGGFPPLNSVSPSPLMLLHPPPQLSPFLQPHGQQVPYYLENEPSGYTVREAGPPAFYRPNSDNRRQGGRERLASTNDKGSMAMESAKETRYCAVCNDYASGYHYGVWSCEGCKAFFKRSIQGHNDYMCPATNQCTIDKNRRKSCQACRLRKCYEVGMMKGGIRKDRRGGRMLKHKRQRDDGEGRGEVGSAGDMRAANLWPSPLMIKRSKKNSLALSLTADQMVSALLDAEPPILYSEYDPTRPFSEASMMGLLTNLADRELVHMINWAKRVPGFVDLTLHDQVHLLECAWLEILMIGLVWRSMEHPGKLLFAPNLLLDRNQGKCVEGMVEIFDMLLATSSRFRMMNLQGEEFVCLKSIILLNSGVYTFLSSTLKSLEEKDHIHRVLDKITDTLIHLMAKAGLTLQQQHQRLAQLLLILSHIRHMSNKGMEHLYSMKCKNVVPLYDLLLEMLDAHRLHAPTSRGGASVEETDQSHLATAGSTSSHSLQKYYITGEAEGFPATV

[17] = qHTS assay to identify small molecule antagonists of the estrogen receptor alpha (ER-alpha) signaling pathway using the BG1 cell line (AID 743080; calls by dose curve;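 note: BG1 cells stimulated with 17beta-estradiol alongside compound; nearly all actives have a fitted effect of over 25% in size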; note: potency is the fitted concentration of half-maximal effect); conditions: BG1Luc4E2 ERE-luciferase antagonist mode, luminescence; activity change, negative = inhibition: at 70.3 µM (top of the series) unless noted
In short: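 BG1-Luc-4E2 cells (endogenous full-length ER-alpha, 4xERE luciferase) hormone-starved 5 days in charcoal-stripped FBS, plated 4,000/well for 24 h, then compound plus 17beta-estradiol for 21.5 h at 37 C; ONE-Glo luminescence read.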

[18] = qHTS assay to identify small molecule antagonists of the androgen receptor (AR) signaling pathway - cell viability counter screen (AID 743033; note: % is set by controls: 0 for no effect and ±100 for the full control effect; nearly all actives have a fitted effect of over 45% in size); conditions: AR-bla HEK293 viability, CellTiter-Glo luminescence, 16 h; activity change, negative = cytotoxicity: at 58.5 µM (top of the series) unless noted
[19] = biological target: Estrogen receptor (Homo sapiens) (UniProt P03372); test: qHTS assay to identify small molecule antagonists of the estrogen receptor alpha (ER-alpha) signaling pathway (AID 743069; active = well fitted curve in the direction sought with a large enough effect in the signal ratio in the repeat runs, not every such curve was filed as active; inconclusive = weak or mixed curves, or effect the other way; inactive = no such curve, though single readings can be large or run the other way; the % refers to the signal ratio; note: potency is the fitted concentration of half-maximal effect); conditions: HEK293 ER-alpha-UAS-bla, beta-lactamase ratio, antagonist mode; activity, negative = inhibition: at 69.4 µM (top of the series) unless noted
In short: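 Reporter cells (ER-alpha-bla, HEK293 background) are conditioned overnight in stripped-serum medium (2% charcoal-stripped FBS). Compound and 17beta-estradiol exposure runs 18 hr at 37C, 5% CO2.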

[20] = qHTS assay to identify small molecule antagonists of the estrogen receptor alpha (ER-alpha) signaling pathway using the BG1 cell line - cell viability counter screen (AID 743081); conditions: BG1Luc4E2 viability, CellTiter-Fluor, 22 h; activity change, negative = cytotoxicity: at 70.3 µM (top of the series) unless noted;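 note: compound given together with 17beta-estradiol as the ER stimulus; potency is the fitted concentration of half-maximal effect; nearly all actives have a fitted effect of over 45% in size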
Tags give direction and shape of the fitted curve or compound fluorescence and quenching.

Cc1cc(CC(C)CC(C)(C)C)n(O)c(=O)c1 (centres undefined) (tested in a mixture with another compound)
inconclusive: Potency [3] 30.1 µM [cytotoxic, single point] | Potency [4] 6.01 µM | Potency [6] 33.5 µM [cytotoxic] | activation [7] -8.4% [phenotype inactive] | Potency [8] 30.1 µM [cytotoxic, single point] | Potency [9] 13.3 µM [cytotoxic, full curve]
active: Potency [1] 9.44 µM | Potency [2] 3.35 µM | Potency [5] 15.1 µM | Potency [10] 25.1 µM

CC1(C)[C@@H]2CC[C@@]1(C)[C@H](OC(=O)CSC#N)C2
inactive: Potency [5] | Potency [12] | Potency [13]
inconclusive: ratio activity, negative = MMP loss [2] 22.7% | Potency [11] 29.8 µM [cytotoxic, partial curve] | Potency [10] 15.8 µM [activator, partial curve, poor fit]

O=C1CCC(c2ccccc2)(C2CCN(Cc3ccccc3)CC2)C(=O)N1 (centres undefined)
inconclusive: activity change, negative = inhibition [4] 7.62% | Potency [11] 26.6 µM [cytotoxic, partial curve] | Potency [14] 26.6 µM [cytotoxic] | Potency [15] 33.5 µM [cytotoxic, single point]
active: Potency [10] 5.62 µM
inactive: Potency [2] | Potency [6] | Potency [16] | Potency [17] | Potency [9]

COC(C)(OC)OC
inconclusive: ratio activity, negative = MMP loss [2] 17.8% | Potency [8] 48.4 µM [rising, partial curve, poor fit]

CO[C@H]1O[C@@H]2O[C@@]3(C)CC[C@H]4[C@H](C)CC[C@@H]([C@H]1C)[C@@]24OO3
inactive: Potency [2] | Potency [18]
inconclusive: Potency [10] 15.8 µM [activator, partial curve, poor fit]
active: Potency [12] 1.68 µM

CN(C)C(=O)CCSC(SCCC(=O)O)c1cccc(/C=C/c2ccc3ccc(Cl)cc3n2)c1 (centres undefined)
inactive: Potency [8]
active: Potency [2] 24.8 µM | Potency [4] 8.49 µM | Potency [19] 7.56 µM [inconclusive] | Potency [10] 8.91 µM
inconclusive: Potency [5] 19 µM [cytotoxic, partial curve] | Potency [11] 33.5 µM [cytotoxic, single point] | Potency [12] 33.5 µM [cytotoxic, single point] | Potency [14] 33.5 µM [cytotoxic, single point] | Potency [6] 33.5 µM [cytotoxic, single point] | activation [7] -6.71% [phenotype inactive] | Potency [17] 2.37 µM [rising, full curve] | Potency [9] 33.5 µM [cytotoxic, single point] | Potency [13] 3.79 µM [rising, partial curve, poor fit]

C=C1CC[C@H](O)CC1=C/C=C1\CCC[C@]2(C)[C@@H]([C@H](C)CC[C@@H](O)C(C)(C)O)CC[C@@H]12
active: Potency [2] 11.9 µM | Potency [5] 21.3 µM | Potency [15] 26.6 µM
inconclusive: Potency [1] 21.1 µM [cytotoxic, partial curve] | activation [7] -6.59% [phenotype inactive] | Potency [8] 26.8 µM [cytotoxic, partial curve, poor fit] | Potency [16] 15 µM [inhibitor, partial curve] | Potency [17] 23.7 µM [falling, partial curve] | activation [13] -2.55% | Potency [10] 14.1 µM [activator, partial curve]

C#C[C@]1(O)CC[C@H]2[C@@H]3CCC4=CC(=O)CC[C@@H]4[C@H]3C(=C)C[C@@]21CC
active: Potency [4] 0.379 µM
inconclusive: activation [1] 7.97% | Potency [12] 33.5 µM [cytotoxic, single point] | activity change, negative = inhibition [17] 8.41% | Potency [20] 0.0596 µM [rising, partial curve, poor fit] | Potency [10] 25.1 µM [activator, single point]
inactive: Potency [15] | Potency [13]
